{"source": "the supplement of paper PMC8728848", "test_in_all_cases": "glycan array binding signal (z-score within array); higher = stronger binding", "settings_in_all_cases": "glycan notation: IUPAC condensed, linker removed", "key": {"[1]": {"molecular_target": "Fuc(a1-2)[Gal(a1-3)]Gal(b1-4)GlcNAc(b1-6)GalNAc", "summary_of_the_method": "(§1)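 From the Consortium for Functional Glycomics database, 3228 arrays were curated, keeping only those whose protein sequence was available. Binding is given as a within-array Z-score averaged across arrays sharing a protein sequence and across linkers. Negative Z-scores can be read as non-binding.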"}, "[2]": {"molecular_target": "Fuc(a1-2)[Gal(a1-3)]Gal(b1-4)[Fuc(a1-3)]Glc", "summary_of_the_method": "as §1"}, "[3]": {"molecular_target": "Fuc(a1-2)[Gal(a1-3)]Gal(b1-4)[Fuc(a1-3)]GlcNAc", "summary_of_the_method": "as §1"}, "[4]": {"molecular_target": "Fuc(a1-2)[Gal(a1-3)]Gal(b1-4)[Fuc(a1-3)]GlcNAc(b1-3)GalNAc", "summary_of_the_method": "as §1"}, "[5]": {"molecular_target": "Fuc(a1-2)[Gal(a1-4)]Gal(b1-4)GlcNAc", "summary_of_the_method": "as §1"}, "[6]": {"molecular_target": "Fuc(a1-2)[GalNAc(a1-3)]Gal", "summary_of_the_method": "as §1"}, "[7]": {"molecular_target": "Fuc(a1-2)[GalNAc(a1-3)]Gal(b1-3)GalNAc(a1-3)[Fuc(a1-2)]Gal(b1-4)GlcNAc", "summary_of_the_method": "as §1"}, "[8]": {"molecular_target": "Fuc(a1-2)[GalNAc(a1-3)]Gal(b1-3)GlcNAc", "summary_of_the_method": "as §1"}, "[9]": {"molecular_target": "Fuc(a1-2)[GalNAc(a1-3)]Gal(b1-3)GlcNAc(b1-2)Man(a1-3)[Fuc(a1-2)[GalNAc(a1-3)]Gal(b1-3)GlcNAc(b1-2)Man(a1-6)]Man(b1-4)GlcNAc(b1-4)GlcNAc", "summary_of_the_method": "as §1"}, "[10]": {"molecular_target": "Fuc(a1-2)[GalNAc(a1-3)]Gal(b1-3)GlcNAc(b1-2)Man(a1-3)[Fuc(a1-2)[GalNAc(a1-3)]Gal(b1-3)GlcNAc(b1-2)Man(a1-6)]Man(b1-4)GlcNAc(b1-4)[Fuc(a1-6)]GlcNAc", "summary_of_the_method": "as §1"}, "[11]": {"molecular_target": "Fuc(a1-2)[GalNAc(a1-3)]Gal(b1-3)GlcNAc(b1-3)GalNAc", "summary_of_the_method": "as §1"}, "[12]": {"molecular_target": "Fuc(a1-2)[GalNAc(a1-3)]Gal(b1-3)GlcNAc(b1-6)GalNAc", "summary_of_the_method": "as §1"}, "[13]": {"molecular_target": "Fuc(a1-2)[GalNAc(a1-3)]Gal(b1-4)Glc", "summary_of_the_method": "as §1"}, "[14]": {"molecular_target": "Fuc(a1-2)[GalNAc(a1-3)]Gal(b1-4)GlcNAc", "summary_of_the_method": "as §1"}, "[15]": {"molecular_target": "Fuc(a1-2)[GalNAc(a1-3)]Gal(b1-4)GlcNAc(b1-2)Man(a1-3)[Fuc(a1-2)[GalNAc(a1-3)]Gal(b1-4)GlcNAc(b1-2)Man(a1-6)]Man(b1-4)GlcNAc(b1-4)GlcNAc", "summary_of_the_method": "as §1"}, "[16]": {"molecular_target": "Fuc(a1-2)[GalNAc(a1-3)]Gal(b1-4)GlcNAc(b1-2)Man(a1-3)[Fuc(a1-2)[GalNAc(a1-3)]Gal(b1-4)GlcNAc(b1-2)Man(a1-6)]Man(b1-4)GlcNAc(b1-4)[Fuc(a1-6)]GlcNAc", "summary_of_the_method": "as §1"}, "[17]": {"molecular_target": "Fuc(a1-2)[GalNAc(a1-3)]Gal(b1-4)GlcNAc(b1-3)Gal(b1-4)GlcNAc", "summary_of_the_method": "as §1"}, "[18]": {"molecular_target": "Fuc(a1-2)[GalNAc(a1-3)]Gal(b1-4)GlcNAc(b1-3)Gal(b1-4)GlcNAc(b1-3)Gal(b1-4)GlcNAc", "summary_of_the_method": "as §1"}, "[19]": {"molecular_target": "Fuc(a1-2)[GalNAc(a1-3)]Gal(b1-4)GlcNAc(b1-3)GalNAc", "summary_of_the_method": "as §1"}, "[20]": {"molecular_target": "Fuc(a1-2)[GalNAc(a1-3)]Gal(b1-4)[Fuc(a1-3)]GlcNAc", "summary_of_the_method": "as §1"}, "[21]": {"molecular_target": "Fuc(a1-2)[GalNAc(a1-3)]Gal(b1-4)[Fuc(a1-3)]GlcNAc(b1-3)GalNAc", "summary_of_the_method": "as §1"}, "[22]": {"molecular_target": "Fuc(a1-2)[GalNAc(a1-4)]Gal(b1-4)GlcNAc", "summary_of_the_method": "as §1"}, "[23]": {"molecular_target": "Fuc(a1-2)[GalNAc(b1-3)]Gal", "summary_of_the_method": "as §1"}, "Fuc(a1-3)GlcNAc": {"molecular_target": "Fuc(a1-3)GlcNAc", "summary_of_the_method": "as §1"}, "[24]": {"molecular_target": "Fuc(a1-3)[Gal(b1-4)]Glc6S", "summary_of_the_method": "as §1"}, "[25]": {"molecular_target": "Fuc(a1-3)[Gal(b1-4)]GlcNAc", "summary_of_the_method": "as §1"}, "[26]": {"molecular_target": "Fuc(a1-3)[Gal(b1-4)]GlcNAc(b1-2)Man", "summary_of_the_method": "as §1"}, "[27]": {"molecular_target": "Fuc(a1-3)[Gal(b1-4)]GlcNAc(b1-2)Man(a1-3)[Fuc(a1-3)[Gal(b1-4)]GlcNAc(b1-2)Man(a1-6)]Man(b1-4)GlcNAc(b1-4)GlcNAc", "summary_of_the_method": "as §1"}, "[28]": {"molecular_target": "Fuc(a1-3)[Gal(b1-4)]GlcNAc(b1-2)Man(a1-3)[Fuc(a1-3)[Gal(b1-4)]GlcNAc(b1-2)Man(a1-6)]Man(b1-4)GlcNAc(b1-4)[Fuc(a1-6)]GlcNAc", "summary_of_the_method": "as §1"}, "[29]": {"molecular_target": "Fuc(a1-3)[Gal(b1-4)]GlcNAc(b1-3)Gal(b1-3)[Fuc(a1-4)]GlcNAc", "summary_of_the_method": "as §1"}}, "note": "The other results are listed elsewhere or left out."}
{"binder": "StcE (Escherichia coli), O82882.2 (protein) ADNNSAIYFNTSQPINDLQGSLAAEVKFAQSQILPAHPKEGDSQPHLTSLRKSLLLVRPVKADDKTPVQVEARDDNNKILGTLTLYPPSSLPDTIYHLDGVPEGGIDFTPHNGTKKIINTVAEVNKLSDASGSSIHSHLTNNALVEIHTANGRWVRDIYLPQGPDLEGKMVRFVSSAGYSSTVFYGDRKVTLSVGNTLLFKYVNGQWFRSGELENNRITYAQHIWSAELPAHWIVPGLNLVIKQGNLSGRLNDIKIGAPGELLLHTIDIGMLTTPRDRFDFAKDKEAHREYFQTIPVSRMIVNNYAPLHLKEVMLPTGELLTDMDPGNGGWHSGTMRQRIGKELVSHGIDNANYGLNSTAGLGENSHPYVVAQLAAHNSRGNYANGIQVHGGSGGGGIVTLDSTLGNEFSHEVGHNYGLGHYVDGFKGSVHRSAENNNSTWGWDGDKKRFIPNFYPSQTNEKSCLNNQCQEPFDGHKFGFDAMAGGSPFSAANRFTMYTPNSSAIIQRFFENKAVFDSRSSTGFSKWNADTQEMEPYEHTIDRAEQITASVNELSESKMAELMAEYAVVKVHMWNGNWTRNIYIPTASADNRGSILTINHEAGYNSYLFINGDEKVVSQGYKKSFVSDGQFWKERDVVDTREARKPEQFGVPVTTLVGYYDPEGTLSSYIYPAMYGAYGFTYSDDSQNLSDNDCQLQVDTKEGQLRFRLANHRANNTVMNKFHINVPTESQPTQATLVCNNKILDTKSLTPAPEGLTYTVNGQALPAKENEGCIVSVNSGKRYCLPVGQRSGYSLPDWIVGQEVYVDSGAKAKVLLSDWDNLSYNRIGEFVGNVNPADMKKVKAWNGQYLDFSKPRSMRVVYK", "values": [{"measurement": "glycan array binding signal (z-score)", "setting": "[1]", "result": -0.052}, {"measurement": "glycan array binding signal (z-score)", "setting": "[2]", "result": -0.158}, {"measurement": "glycan array binding signal (z-score)", "setting": "[3]", "result": -0.14}, {"measurement": "glycan array binding signal (z-score)", "setting": "[4]", "result": -0.14}, {"measurement": "glycan array binding signal (z-score)", "setting": "[5]", "result": -0.178}, {"measurement": "glycan array binding signal (z-score)", "setting": "[6]", "result": -0.251}, {"measurement": "glycan array binding signal (z-score)", "setting": "[7]", "result": -0.079}, {"measurement": "glycan array binding signal (z-score)", "setting": "[8]", "result": -0.164}, {"measurement": "glycan array binding signal (z-score)", "setting": "[9]", "result": -0.132}, {"measurement": "glycan array binding signal (z-score)", "setting": "[10]", "result": 0.015}, {"measurement": "glycan array binding signal (z-score)", "setting": "[11]", "result": -0.096}, {"measurement": "glycan array binding signal (z-score)", "setting": "[12]", "result": 0.26}, {"measurement": "glycan array binding signal (z-score)", "setting": "[13]", "result": -0.141}, {"measurement": "glycan array binding signal (z-score)", "setting": "[14]", "result": -0.038}, {"measurement": "glycan array binding signal (z-score)", "setting": "[15]", "result": -0.15}, {"measurement": "glycan array binding signal (z-score)", "setting": "[16]", "result": -0.164}, {"measurement": "glycan array binding signal (z-score)", "setting": "[17]", "result": -0.145}, {"measurement": "glycan array binding signal (z-score)", "setting": "[18]", "result": -0.164}, {"measurement": "glycan array binding signal (z-score)", "setting": "[19]", "result": -0.15}, {"measurement": "glycan array binding signal (z-score)", "setting": "[20]", "result": -0.181}, {"measurement": "glycan array binding signal (z-score)", "setting": "[21]", "result": -0.009}, {"measurement": "glycan array binding signal (z-score)", "setting": "[22]", "result": -0.156}, {"measurement": "glycan array binding signal (z-score)", "setting": "[23]", "result": -0.207}, {"measurement": "glycan array binding signal (z-score)", "setting": "Fuc(a1-3)GlcNAc", "result": -0.372}, {"measurement": "glycan array binding signal (z-score)", "setting": "[24]", "result": -0.147}, {"measurement": "glycan array binding signal (z-score)", "setting": "[25]", "result": -0.454}, {"measurement": "glycan array binding signal (z-score)", "setting": "[26]", "result": -0.148}, {"measurement": "glycan array binding signal (z-score)", "setting": "[27]", "result": -0.16}, {"measurement": "glycan array binding signal (z-score)", "setting": "[28]", "result": -0.117}, {"measurement": "glycan array binding signal (z-score)", "setting": "[29]", "result": -0.162}]}
